Patent US20040120947A1 (Genentech, published 2004)

Molecular target: T1, soluble His-tagged Apo-2L (UniProt P50591 114-281, limits assumed)
T1 construct: His tag present; also called Apo-2 ligand; TRAIL
Assay: KinExA; column head 'Affinity (pM)'

T1 sequence (P50591 114-281 limits assumed): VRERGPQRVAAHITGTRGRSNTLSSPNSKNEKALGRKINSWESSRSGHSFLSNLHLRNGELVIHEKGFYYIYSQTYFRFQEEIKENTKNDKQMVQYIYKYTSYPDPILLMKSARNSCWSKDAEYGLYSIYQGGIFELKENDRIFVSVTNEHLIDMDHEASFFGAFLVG

Kd: 82 pM
B1: DR4 ECD immunoadhesin (Fc fusion)
chain: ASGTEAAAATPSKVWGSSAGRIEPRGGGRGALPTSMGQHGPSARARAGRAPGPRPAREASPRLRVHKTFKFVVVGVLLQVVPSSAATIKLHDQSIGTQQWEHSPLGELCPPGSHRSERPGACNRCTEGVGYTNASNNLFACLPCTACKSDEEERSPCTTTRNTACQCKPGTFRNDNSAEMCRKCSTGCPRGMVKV
notes: Expressed in human 293 cells; also called DR4-IgG; DR4 ECD-IgG; not shown: CH1, hinge and Fc region of human immunoglobulin G1 heavy chain
